System: dissociated dorsal root ganglion (DRG) neurons
Assay type: cell-based, mice
Settings: 50 μM

CCCCCC[C@H](O)c1oc(OC)c(C)c(=O)c1C [compound 3]
activity in the calcium-imaging assay: inactive

Source: article PMC3558931 (Chemistry & biology, 2013)
